Data from PubChem BioAssay AID504332 (National Center for Advancing Translational Sciences (NCATS), 2011).
In all, about 350,000 compounds went through this assay and about 31,000 (8.9%) were called active. This list was built around the results that the source calls inconclusive (neither active nor inactive); the mix of calls is not that of the screen. The call rests on the fitted dose curve; in most records, active means well fitted inhibition curve with a large enough effect; inconclusive means small, poorly fitted or top-dose-only effect; inactive means no such curve, though single readings can be large or run the other way. Potencies of inconclusive entries are doubtful fits and often do not repeat.

molecular target: Histone-lysine N-methyltransferase EHMT2 (Homo sapiens) (UniProt Q96KQ7); test: qHTS Assay for Inhibitors of Histone Lysine Methyltransferase G9a; conditions: G9a H3K9 monomethylation, AlphaScreen, 2 h; activity, negative = inhibition: at 59 µM (top of the series) unless noted; further: nearly all actives have a fitted effect of over 75% in size
Sequence of UniProt Q96KQ7 (Q96KQ7 whole entry, looked up): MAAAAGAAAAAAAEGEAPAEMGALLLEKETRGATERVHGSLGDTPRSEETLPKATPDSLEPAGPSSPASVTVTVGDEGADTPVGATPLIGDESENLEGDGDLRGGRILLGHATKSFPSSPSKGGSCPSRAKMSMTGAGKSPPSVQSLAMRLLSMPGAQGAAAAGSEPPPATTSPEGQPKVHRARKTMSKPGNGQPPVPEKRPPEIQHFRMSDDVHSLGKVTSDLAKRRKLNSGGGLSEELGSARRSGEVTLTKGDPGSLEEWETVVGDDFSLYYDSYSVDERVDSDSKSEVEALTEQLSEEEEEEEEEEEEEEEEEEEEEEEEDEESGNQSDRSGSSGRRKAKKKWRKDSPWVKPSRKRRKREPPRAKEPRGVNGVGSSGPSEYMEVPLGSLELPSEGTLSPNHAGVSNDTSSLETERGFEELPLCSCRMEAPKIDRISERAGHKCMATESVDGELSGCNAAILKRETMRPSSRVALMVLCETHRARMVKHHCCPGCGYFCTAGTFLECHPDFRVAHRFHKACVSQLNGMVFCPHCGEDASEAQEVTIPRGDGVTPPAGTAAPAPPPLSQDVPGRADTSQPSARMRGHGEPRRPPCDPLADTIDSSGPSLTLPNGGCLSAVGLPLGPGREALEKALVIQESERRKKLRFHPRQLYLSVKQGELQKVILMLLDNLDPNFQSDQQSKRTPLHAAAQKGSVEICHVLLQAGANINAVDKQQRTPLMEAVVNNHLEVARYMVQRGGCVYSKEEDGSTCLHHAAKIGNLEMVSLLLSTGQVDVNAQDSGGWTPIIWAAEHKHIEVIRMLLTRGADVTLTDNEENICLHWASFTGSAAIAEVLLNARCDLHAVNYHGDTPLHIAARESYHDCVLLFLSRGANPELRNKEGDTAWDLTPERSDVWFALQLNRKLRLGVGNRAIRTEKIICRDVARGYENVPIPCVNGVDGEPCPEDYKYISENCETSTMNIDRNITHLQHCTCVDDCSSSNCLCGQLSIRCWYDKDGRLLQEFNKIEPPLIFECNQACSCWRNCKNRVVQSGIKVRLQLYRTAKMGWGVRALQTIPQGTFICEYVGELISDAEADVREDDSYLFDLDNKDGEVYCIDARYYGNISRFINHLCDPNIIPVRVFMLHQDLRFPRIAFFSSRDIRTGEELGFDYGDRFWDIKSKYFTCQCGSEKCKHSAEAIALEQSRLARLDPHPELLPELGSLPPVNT
Procedure, shortened: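 G9a (20 nM) was preincubated 15 min with compound, then reacted 2 h at room temperature with 500 nM biotin-H3K9 peptide and 20 µM SAM. Monomethyl-H3K9 detected by AlphaScreen using anti-H3K9me1 antibody.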
On the % scale 0 is the no-effect control and ±100 the full control effect; potency means the concentration at half of the fitted maximal effect; tags describe the fitted curve by direction and shape.

Structure (SMILES)	Potency	activity, negative = inhibition
O=c1o[nH]c(-c2ccccc2)c1C=Nc1ccc(Cl)cc1	inconclusive: 35.5 µM [inhibitor, partial curve, poor fit]	
CC(C)(C)c1cc(CN2CCN(CCO)CC2)cc(C(C)(C)C)c1O	inconclusive: 6.31 µM [inhibitor, single point]	
O=S(=O)(NCC(c1ccco1)S(=O)(=O)c1cccs1)c1ccc(Cl)cc1 (stereo not given)		inactive: -25.7%
CN(Cc1ccccc1)c1ncnc2c1nnn2C		inactive: 9.52%
O=c1oc2c3c(ccc2c2ccccc12)OCN(Cc1ccccc1Cl)C3	active: 1.26 µM	
COc1cc(-c2nnc(COC(=O)C3c4ccccc4Oc4ccccc43)o2)cc(OC)c1OC	inconclusive: 35.5 µM [inhibitor, single point]	
COC(=O)c1c(NC(=O)Cc2coc3ccc(C(C)C)cc23)sc2c1CCC2	inconclusive: 2.51 µM [inhibitor, partial curve, poor fit]	
O=C(Cn1cc2c(n1)CCCC2)NCC1CCCO1 (stereo not given)	inconclusive: 79.4 µM [inhibitor, single point]	
CC1(C)NC(=O)N(CC(=O)OCC(=O)Nc2cc(S(=O)(=O)N3CCCCC3)ccc2Cl)C1=O	inconclusive: 39.8 µM [inhibitor, single point]	
O=C(CCCCn1c(=O)c2ccccc2n(CC(=O)Nc2ccc(F)cc2F)c1=O)NCCc1ccccc1		inactive: -12.3%
Cc1nc2ccc(N3C(=O)CCC3=O)cc2[nH]1	inconclusive: 3.55 µM [inhibitor, full curve]	
Cc1ccc(C(=O)NCCc2ccc(S(N)(=O)=O)cc2)cc1-n1cnc2cccnc21	inconclusive: 3.98 µM [inhibitor, full curve]	
O=C(CSc1nc(-c2ccccc2)cs1)N1CCc2ccccc21	inconclusive: 89.1 µM [inhibitor, single point]	
Cc1occc1C(=O)NNC(=S)NCc1ccc(Cl)cc1	inconclusive: 44.7 µM [inhibitor, partial curve]	
N=C1/C(=C/c2cccn2CCOc2ccccc2)C(=O)N=C2SC=C(c3ccccc3)N12		inactive: -4.48%
Cc1cccc(N(C(=O)CCC(=O)Nc2cc(C)on2)C(C(=O)NC2CCCC2)c2ccc(C)o2)c1 (stereo not given)	inconclusive: 70.8 µM [inhibitor, partial curve, poor fit]	
Cc1ccc(S(=O)(=O)NCCC(=O)Oc2ccc3ccc(=O)oc3c2)cc1		inactive: 10.8%
CCOC(=O)c1c(NC(=O)c2cc3nc(-c4ccc(Br)cc4)cc(C(F)(F)F)n3n2)sc(C(C)=O)c1C	inconclusive: 28.2 µM [inhibitor, single point]	
COc1ccccc1C(=O)N(CCC1CCCN1C)c1nc2ccccc2s1 (stereo not given)	inconclusive: 89.1 µM [inhibitor, single point]	
CCC(SC1=NCCS1)C(=O)Nc1nnc(-c2ccccc2OC)s1 (stereo not given)	inconclusive: 28.2 µM [inhibitor, single point]	
c1ccc(N2CCN(CCCOc3ccc4c(c3)OCO4)CC2)cc1	active: 20 µM	
CC(C)NC(=O)CSc1nc2sccc2c(=O)n1-c1ccccc1	inconclusive: 39.8 µM [inhibitor, partial curve]	
CCCCn1c(N)c(N(CCC(C)C)C(=O)C2CCCC2)c(=O)[nH]c1=O	active: 20 µM	
COc1cc(C(=O)Nc2ccc3c(c2)N(C2CCCC2)C(=O)c2ccccc2S3)cc(OC)c1OC		inactive: 0.352%

Structure (SMILES)	Potency	activity, negative = inhibition
CCOC(=O)c1ccccc1NC(=O)CN1CCCN(Cc2cccc(Cl)c2)S1(=O)=O		inactive: -5.58%
Cc1ccnc2c1ccc1c(C)ccnc12	inconclusive: 1.41 µM [inhibitor, full curve, poor fit]	
O=C(CN1CCC(NC(=O)C2CC2)CC1)Nc1ccccc1[N+](=O)[O-]	inconclusive: 3.16 µM [inhibitor, partial curve, poor fit]	
COc1ccccc1-c1cc(C(=O)N/N=C\c2cn(C)nc2C)c2ccccc2n1	inconclusive: 0.708 µM [inhibitor, full curve, poor fit]	
CCc1ccccc1NC(=O)CN1CCCN(Cc2cc(C)ccc2C)S1(=O)=O	inconclusive: 6.31 µM [inhibitor, single point]	
Cc1ccccc1C1C(C#N)=C2N=C(N)c3ccccc3N2C2=C1C(=O)CCC2 (stereo not given)	inconclusive: 79.4 µM [inhibitor, single point]	
COC(=O)c1cc(CSc2nnc(NC3CCCCC3)s2)oc1C	inconclusive: 3.55 µM [inhibitor, single point]	
Cc1ccc(C)c(NS(=O)(=O)c2ccc3oc(=O)ccc3c2)c1		inactive: 27.9% [at 102 µM]
O=C(c1cn(-c2ccccc2)nc1-c1cccc(Br)c1)N1CCOCC1		inactive: -29.8% [at 102 µM]
COC(=O)C1C2C=CC3(CN(C(C)c4ccc(OC)cc4)C(=O)C13)O2 (stereo not given)	inconclusive: 1 µM [inhibitor, partial curve, poor fit]	
COc1ccc(C(C)=O)cc1CSc1nc(NCCc2ccccc2)c2ccccc2n1	inconclusive: 8.91 µM [inhibitor, partial curve, poor fit]	
CC1CCCN(C(=O)c2cc3ccccc3cc2O)C1 (stereo not given)		inactive: 8.72% [at 102 µM]
Cc1ccc(C(=O)N2CCN(c3cc4c(cc3[N+](=O)[O-])n(C)c(=O)n4C)CC2)cc1		inactive: -36.2% [at 102 µM]
COc1cccc(N2CC(NC(=O)C(=O)c3c(C)[nH]c4ccccc34)CC2=O)c1 (stereo not given)	inconclusive: 56.2 µM [inhibitor, partial curve, poor fit]	
CNC(=O)NC(=O)CSc1nc2sccc2c(=O)n1-c1ccccc1		inactive: -4.21% [at 102 µM]
O=C1N=C(N2CCOCC2)S/C1=C1\C(=O)N(Cc2ccccc2)c2ccc(Br)cc21	inconclusive: 28.2 µM [inhibitor, single point]	
CC1(C)CNC(=O)c2sc(NC(=O)c3ccccc3Cl)nc2C1		inactive: 9.31% [at 102 µM]
O=C(O)c1ccc(Cl)c(S(=O)(=O)N2CCCC2)c1	inconclusive: 89.1 µM [inhibitor, single point]	
CC1(C)CC(=O)C2=C(C1)OC(N)=C(C#N)C2CCc1ccccc1 (stereo not given)	inconclusive: 25.1 µM [inhibitor, single point]	
COc1ccccc1-c1cc(C(=O)Nc2cc(OC)c(OC)c(OC)c2)no1		inactive: -23%
Oc1ccc(-c2sc(Nc3ccccc3)n[n+]2-c2ccc(F)cc2)cc1	active: 35.5 µM	
Cc1ccc(C(=O)O)cc1NC(=O)c1cccs1	inconclusive: 14.1 µM [inhibitor, partial curve, poor fit]	
COc1ccc(S(=O)(=O)N2CCC(C(=O)NCc3ccccc3)CC2)cc1OC	inconclusive: 79.4 µM [inhibitor, single point]	
O=C(CN1C(=O)COc2ccccc21)N(Cc1ccccc1)Cc1ccccn1	inconclusive: 63.1 µM [inhibitor, partial curve, poor fit]	

Structure (SMILES)	Potency	activity, negative = inhibition
Cc1nnc(Cl)c2nn(-c3ccccc3F)c(C)c12	inconclusive: 7.94 µM [inhibitor, partial curve, poor fit]	
COc1ccc(NC(=O)CCCN2C(=O)CN(C)C2=O)cc1Cl		inactive: 20.4% [at 12.7 µM]
C/C(=N\N1CCN(c2ccccc2)CC1)c1ccco1	active: 56.2 µM	
CCOC(=O)C1=C(CN2CCN(C(=O)c3ccco3)CC2)NC(=O)NC1c1ccc(C)cc1 (stereo not given)	inconclusive: 89.1 µM [inhibitor, single point]	
O=C(Cc1ccccc1)NCc1ccc2c(c1)OCO2	inconclusive: 89.1 µM [inhibitor, partial curve, poor fit]	
O=C(COC(=O)/C=C/c1cccc(F)c1)Nc1ncccn1	active: 70.8 µM	
O=C(NNS(=O)(=O)c1ccc(C(=O)NC2CCCC2)cc1)c1ccncc1	active: 50.1 µM	
COc1ccc(NC(=O)CCc2nc3c(C)nn(-c4ccc(C)cc4)c3n(C)c2=O)cc1		inactive: -28%
COc1ccc(-c2ccc(CCC(=O)O)n2-c2ccccc2O)cc1	inconclusive: 79.4 µM [inhibitor, single point]	
CN(CCC#N)S(=O)(=O)c1cc2c3c(c1)CCN3C(=O)CC2		inactive: -0.0415% [at 102 µM]
CCC1=NN2C(=N)/C(=C/c3cc(C)n(-c4ccccc4)c3C)C(=O)N=C2S1		inactive: -24.1% [at 102 µM]
Fc1ccc(NC(=S)Nc2ccc3nccnc3c2)cc1	active: 39.8 µM	
CC(C)OC(=O)c1ccc(NC(=S)NC(=O)c2cncc(Br)c2)cc1		inactive: -18% [at 102 µM]
FC(F)(F)c1ccccc1-c1nc(NCc2cccs2)c2ccccc2n1		inactive: 10.9% [at 0.501 µM]
COc1cccc(/C=C/C(=O)NNC(=O)c2ccco2)c1OC	inconclusive: 7.08 µM [inhibitor, partial curve, poor fit]	
COc1ccc(OC)c(CNC(=O)C2CCCCN2S(=O)(=O)c2ccc(F)cc2)c1 (stereo not given)		inactive: -2.48%
COc1ccc(C(=O)Nc2ccc(S(=O)(=O)N(Cc3ccccc3)c3ccccc3)cc2)cc1		inactive: -5.36%
CCCNCC1C(Oc2ccc(Cl)cc2)C(=O)N1c1ccccc1C (stereo not given)	inconclusive: 20 µM [inhibitor, single point]	
CCOc1cc2c(cc1C(C)(C)C)NC(=O)CS2		inactive: -3.04% [at 12.7 µM]
COc1ccc(NC(=O)c2sc(=S)[nH]c2N)cc1	inconclusive: 1.78 µM [inhibitor, full curve, poor fit]	
Cc1cc(/C=N\NC(=O)COc2cccc3cccnc23)c(C)n1-c1ccccc1	inconclusive: 28.2 µM [inhibitor, single point]	
COc1cc2c3nnc(-c4ccc(F)cc4)c-3cn(Cc3ccccc3)c2cc1OC	inconclusive: 39.8 µM [inhibitor, single point]	
